The results in this text go back to PMC4336329 (PLoS ONE, 2015).

Screen size: about 310,000 compounds; about 2,200 (0.71%) showed an effect of 50% or more. Effects have a minus sign here. The list shows a part of the results.

In this assay the target is human ether-à-go-go-related gene (hERG) potassium channel (human, UniProt Q12809). As to the kind of experiment: primary screen, population patch clamp on CHO cells stably expressing hERG.
human ether-à-go-go-related gene (hERG) potassium channel, sequence (Q12809 whole entry, looked up): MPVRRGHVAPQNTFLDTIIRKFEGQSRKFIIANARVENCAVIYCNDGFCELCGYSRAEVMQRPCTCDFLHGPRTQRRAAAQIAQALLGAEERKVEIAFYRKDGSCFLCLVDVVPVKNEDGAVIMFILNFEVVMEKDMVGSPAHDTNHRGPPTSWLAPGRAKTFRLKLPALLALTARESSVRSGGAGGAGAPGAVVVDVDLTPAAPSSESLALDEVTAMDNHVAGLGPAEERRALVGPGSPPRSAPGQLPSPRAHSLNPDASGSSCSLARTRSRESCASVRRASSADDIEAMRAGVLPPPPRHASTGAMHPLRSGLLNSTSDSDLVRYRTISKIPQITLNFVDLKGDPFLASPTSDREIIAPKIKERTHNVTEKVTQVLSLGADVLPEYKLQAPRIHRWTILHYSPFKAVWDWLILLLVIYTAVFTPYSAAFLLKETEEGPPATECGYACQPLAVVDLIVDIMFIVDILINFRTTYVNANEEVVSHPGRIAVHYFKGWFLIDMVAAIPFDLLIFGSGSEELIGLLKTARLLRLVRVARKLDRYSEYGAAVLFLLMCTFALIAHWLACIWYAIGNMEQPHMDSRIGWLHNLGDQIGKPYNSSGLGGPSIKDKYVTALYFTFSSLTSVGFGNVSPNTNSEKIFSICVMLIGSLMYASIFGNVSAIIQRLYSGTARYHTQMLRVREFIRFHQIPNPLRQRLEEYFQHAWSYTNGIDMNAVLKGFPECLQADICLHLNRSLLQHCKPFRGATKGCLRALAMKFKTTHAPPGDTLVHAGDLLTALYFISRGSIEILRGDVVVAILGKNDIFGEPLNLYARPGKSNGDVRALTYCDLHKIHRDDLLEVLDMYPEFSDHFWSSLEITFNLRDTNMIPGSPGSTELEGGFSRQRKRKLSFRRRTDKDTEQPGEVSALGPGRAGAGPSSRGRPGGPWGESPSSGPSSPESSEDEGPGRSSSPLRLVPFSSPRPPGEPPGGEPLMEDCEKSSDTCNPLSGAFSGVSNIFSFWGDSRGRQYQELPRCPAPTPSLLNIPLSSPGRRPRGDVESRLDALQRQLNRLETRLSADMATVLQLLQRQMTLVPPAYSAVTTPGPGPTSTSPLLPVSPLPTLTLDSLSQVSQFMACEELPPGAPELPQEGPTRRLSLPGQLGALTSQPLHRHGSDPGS
On to `O=S(=O)(/N=C(\Sc1ccc(Cl)cc1)c1ccccc1)c1ccccc1`, for which the “hERG current change (%, negative = inhibition) at 1uM” value is 9.56%.
On to `Cc1cccc(OCCCN2CCCCCC2)c1`, for which the “hERG current change (%, negative = inhibition) at 1uM” value is on record as -8.41%.
To `Nc1ccccc1C(=O)NC1CCCCNC1=O` (stereo not shown) belongs 4.7%.
For `CC(Sc1ccc(S(=O)(=O)N2CCOCC2)cc1[N+](=O)[O-])C(=O)O` (stereo not shown) the value was 8.37%; for `CCc1ccccc1NC(=O)CC(c1ccc(OC)cc1)n1cccc1` (stereo not shown), 3.44%; for `O=C(CCl)NNc1nc(-c2ccccc2)c2cc(Cl)ccc2n1`, 3.96%.
In the case of `CCOP(=O)(OCC)C(Nc1cccc(C)c1)c1ccc(F)cc1` (stereo not shown), the “hERG current change (%, negative = inhibition) at 1uM” value is 12.6%.
To `CCn1c(SCC(=O)N/N=C/c2ccccc2OCC(=O)O)nnc1-c1ccc(OC)cc1` belongs 12%.
For `Cn1c(=O)[nH]c(=O)c2c1nc(N1CCCCCC1)n2Cc1cccc2ccccc12` the value was -0.352%.
As to `Cn1c(=O)c(=O)n(C)c2cc(S(=O)(=O)N3CCCCC3)ccc21`, the “hERG current change (%, negative = inhibition) at 1uM” value was determined as 3.27%.
With `O=c1oc2cc(OCc3ccc(F)cc3F)ccc2cc1-c1ccc2ccccc2n1`, the “hERG current change (%, negative = inhibition) at 1uM” value is given as 6.99%.
For `CCCn1c(SCC(=O)NCc2ccccc2Cl)n[nH]c1=O` the value was 8.08%; for `C/C(=N\NC(=O)c1ccn(C)n1)c1cccc(NC(=O)c2ccc(C)s2)c1`, -8.31%.
To `O=C(NC1CCN(C(=O)Nc2ccccc2Cl)CC1)c1cccc(F)c1` belongs 11.3%; to `COc1ccc(OC)c(-n2c(C)cc(/C=C3\C(=N)N4N=C(CC(=O)N5CCOCC5)SC4=NC3=O)c2C)c1`, 16%.
For `Cc1cc(=O)[nH]c(SCC(=O)Nc2nc(-c3ccccc3)cs2)n1` the value was 11.5%; for `C=CCNC(=S)N/N=C/c1ccccc1OCCOc1ccccc1`, 3.84%; for `Br.Nc1ccc(Nc2nc(-c3ccncc3)cs2)cc1`, 3.54%.
`CC(=O)c1cnc2c(-c3ccc(Cl)cc3)cnn2c1C`: the “hERG current change (%, negative = inhibition) at 1uM” value came to 3.32%.
For `Cc1noc(C)c1CSc1nnc2scc(-c3ccc(Cl)cc3)n12` the value was -8.44%; for `CCOC(=O)N1CCC(NC(=O)c2sc(-n3cccc3)nc2C)CC1`, 0.206%; for `Cc1cccc(CS(=O)(=O)Cc2ccc(C(=O)O)o2)c1`, 13.2%.
For `CCn1c(N)c(C(=O)NCCOC)sc1=S` the value was 12.3%; for `Cc1ccccc1N(Cc1cc(=O)[nH]c2ccccc12)C(=O)C(C)C`, 5.33%; for `CC(Cc1cnccn1)NC(=O)c1cc(COc2ccc(F)cc2F)on1` (stereo not shown), 14%.
Take `Cc1ccc(-n2ncc3c(=O)n(CC(=O)N(C)C)cnc32)cc1C`: the “hERG current change (%, negative = inhibition) at 1uM” value is listed as 9.26%.
To `C=CCNC(=O)c1onc(CSc2cccc(OCC)c2)c1C(=O)O` belongs 10.3%; to `CCc1ccccc1NC(=O)CC1S/C(=N\c2nccs2)N(CC)C1=O` (stereo not shown), 7.62%.
To `Cc1ccnc(NC(=O)c2cccs2)c1` belongs 10.2%; to `NC(=O)c1oc2ccccc2c1NC(=O)c1ccc([N+](=O)[O-])o1`, 16.8%.
For `O=C(Nc1cccc(-c2nc3ccccc3[nH]2)c1)c1ccco1` the value was 18.5%; for `O=C(Nc1ccccc1)ON=C1c2ccccc2-c2ccccc21`, 12.7%.
Consider `C/C(=N\NC(=O)CN1CCCCC1)c1ccccc1O`, for which the “hERG current change (%, negative = inhibition) at 1uM” value is on record as 9.12%.
For `COc1ccc(Cn2c(CCCO)nc3ccccc32)cc1OC` the value was -1.67%; for `Cc1cc(OC(C)C(=O)NCC(O)c2ccccc2)c2c(C)cc(=O)oc2c1` (stereo not shown), 8.66%.
To `O=C1c2ccccc2CN1CCSC(=S)N1CCOCC1` belongs -1.51%.
For the compound `COc1ccccc1Oc1nnnn1-c1ccc(C(N)=O)cc1`, the “hERG current change (%, negative = inhibition) at 1uM” value was -0.0041%.
Regarding `O=C1c2cccc3c(N4CCCCC4)ccc(c23)C(=O)N1CCO`, the “hERG current change (%, negative = inhibition) at 1uM” value amounted to 10%.
For `COc1ccc(C(=O)NC2CC2)cc1OC1CCN(Cc2cnn(C)c2C)CC1` the value was -2%; for `CC(=O)Nc1cc2c(cc1NC(=O)Cn1nc(-c3ccc(F)cc3)ccc1=O)OCCO2`, -0.121%.
`COC(=O)c1ccc(CN2C(=O)c3ccccc3C2=O)cc1`: the “hERG current change (%, negative = inhibition) at 1uM” value is given as 9.13%.
To `CCOc1ccc2nc(NC(=O)CSc3nc(SC)ns3)sc2c1` belongs 8.05%.
For `COc1ccccc1C(CNC(=O)c1cc(S(=O)(=O)N2CCOCC2)ccc1C)N1CCCC1` (stereo not shown) the value was 11.2%; for `CNNC(=O)C(=O)NNS(=O)(=O)c1ccccc1`, 12.5%.
With `OC[C@H]1NC[C@@H](O)[C@@H]1O`, the “hERG current change (%, negative = inhibition) at 1uM” value is on record as 14.6%.
For `CC(C)(C)N1C(=O)c2ccc(C(=O)Nc3ccc(-c4nc5ccccc5[nH]4)cc3)cc2C1=O`, the “hERG current change (%, negative = inhibition) at 1uM” value was 7.66%.
For `COc1ccc(CCNC(=O)c2cc3c(=O)n4cccc(C)c4nc3n(CCCN3CCOCC3)c2=N)cc1` the value was -85.1%; for `CC(C(=O)Nc1ccon1)N1C(=O)c2ccccc2S1(=O)=O` (stereo not shown), -2.78%; for `Cl.c1ccc(C(c2ccccc2)N2CCN(Cc3nnnn3C3CCCC3)CC2)cc1`, 6.82%.
For `CC1CC(C)CN(C(=O)c2ccc3c(=O)n(Cc4ccc5c(c4)OCO5)c(=S)[nH]c3c2)C1` (stereo not shown) the value was 6.76%; for `Cc1noc(C)c1COC(=O)C1CC(O)CN1S(=O)(=O)c1ccc(Cl)cc1` (stereo not shown), 8.11%.
For `CCOC(=O)Cc1cnc(NC(=O)CSc2nc(C)cc(C)n2)s1` the value was 16.9%.
As for `FC(F)(F)c1ccc(-c2nnc(-c3cccnc3)o2)cc1`, the “hERG current change (%, negative = inhibition) at 1uM” value is recorded as 13.2%.
For `O=C(c1ccc2nc(N3CCOCC3)sc2c1)N1CCCC1` the value was 3.54%; for `CC(=O)Nc1ccc(S(=O)(=O)N2CCSC2C(=O)O)cc1` (stereo not shown), 8.15%.
For `CN(C(=O)COC(=O)c1ccccc1NCCO)C1CCS(=O)(=O)C1` (stereo not shown) the value was -8.2%; for `COc1cc2c(cc1OC)CN(C1CCC(C)CC1)CC2` (stereo not shown), 11.2%; for `CSc1ccccc1COC(=O)Nc1ccccc1C`, -10.9%.
To `CCc1nnc(NC(=O)CCN2C(=O)C3CCCCC3C2=O)s1` (stereo not shown) belongs 6.55%; to `COc1ccc(C(CC(=O)O)c2ccc3c(c2)OCO3)cc1` (stereo not shown), 6.26%; to `CC(C)NC(=O)CCNS(=O)(=O)c1ccc(Br)cc1`, 15.9%.
Take `COc1ccc(-c2nnc(SC(C)C(=O)NCc3ccc4c(c3)OCO4)n2Cc2ccco2)cc1` (stereo not shown): the “hERG current change (%, negative = inhibition) at 1uM” value is listed as -16.1%.
For `COc1ccc(NC(=S)N(CCCN2CCCC2)Cc2cccn2Cc2ccc(Cl)cc2)cc1Cl` the value was 3.12%.
For `CCN(CC)CCCNC(=O)Cn1cnc2sc(C)c(S(=O)(=O)N3CCC(C)CC3)c2c1=O` the value was 14.3%; for `COc1cccc(OCc2cc(C(=O)NCCN3CCCCC3CO)no2)c1` (stereo not shown), 15.3%.
For `Cc1ccc(NC(=S)N2CCCC(O)C2)cc1` (stereo not shown) the value was 12.9%.
As for `COc1ccc(S(=O)(=O)N2CCN(C(=S)NCCc3ccccc3)CC2)cc1`, the “hERG current change (%, negative = inhibition) at 1uM” value amounted to 15.9%.
For `CNC(=O)c1sc2nc(-c3ccc(OC)cc3)cn2c1C`, the “hERG current change (%, negative = inhibition) at 1uM” value amounted to 4.18%.
For `COCCn1c(Br)nc2c1c(=O)n(C)c(=O)n2C` the value was 11.2%; for `CC(=O)Nc1ccc(NC(=O)CSc2nnc(-c3cc(C)[nH]n3)n2N)cc1`, 10.1%; for `CCN1CCN(C(=O)CN(C)S(=O)(=O)c2ccc(Cl)cc2)CC1`, -6.47%.
To `Cc1ccc(C2C3=C(CC(C)(C)CC3=O)OC3=C2C(=O)CC(C)(C)C3)cc1` belongs 9.94%; to `C=CCNC(=O)CSc1nnc(-c2ccccc2Br)n1-c1cccc(C(F)(F)F)c1`, 10.5%; to `O=C(NCCc1ccccc1)C1=COCCO1`, 4.58%.
Consider `CC(c1ccccc1)C1CC(=O)N(CC(=O)O)C1=O` (stereo not shown), for which the “hERG current change (%, negative = inhibition) at 1uM” value came out at 16.2%.
For `C=CCN=C1N[C@@H](c2cccc(C(F)(F)F)c2)C(C(=O)OC)=C(C)N1CC` the value was 10.5%.
To `C=C1C/C(=C/C)C(=O)O[C@@H]2CCN3CC=C(COC(=O)[C@]1(C)O)[C@H]23` belongs 5.45%; to `O=C1CC(Nc2ccc(N3CCOCC3)cc2)C(=O)N1Cc1ccccc1` (stereo not shown), 14.4%.
For `CC1CCCC(NC(=O)NC(=O)CCl)C1C` (stereo not shown) the value was 13.7%; for `NNC(=O)CNC(=O)c1ccccc1F`, 13.1%; for `Nn1c(SCC(=O)Nc2ccc(N3CCOCC3)cc2)nnc1-c1ccccc1F`, -1.52%.
On to `CC(C)OC(=O)C1CC=CCC1C(=O)Nc1ccc(Cl)cc1` (stereo not shown), for which the “hERG current change (%, negative = inhibition) at 1uM” value is recorded as 7.99%.
To `CSC1=N/C(=C/c2cccnc2)C(=O)N1Cc1ccc(Cl)cc1` belongs 12.7%; to `CCOC(=O)c1c(NC(=O)CSc2nnc(-c3ccccc3C)n2C)sc(C(C)=O)c1C`, 7.99%.
To `O=C(O)c1nc2ccccc2nc1C(=O)O` belongs 14.5%; to `Cc1cc(C)n2nc(SCC(=O)Nc3ccccc3C)nc2n1`, 8.39%.
To `Cc1nc2ccccc2nc1OCC(=O)NCc1ccc2c(c1)OCO2` belongs 9.2%; to `COc1cccc(N2C(=O)CN(Cc3ccccc3)C2=S)c1`, 9.25%; to `Cc1ccccc1OCc1nc2ccc(S(=O)(=O)N3CCOCC3)cc2[nH]1`, 10%.
Take `CCOCCn1c(SCCCc2ccccc2)nc2c1c(=O)[nH]c(=O)n2C`: the “hERG current change (%, negative = inhibition) at 1uM” value was 10.9%.
To `O=C(NC1CCCN(Cc2ccc(Cl)cc2)C1)c1c(F)ccc(F)c1F` (stereo not shown) belongs -55.4%.
